The chains are these.
T1: RBFOX1 RRM (Homo sapiens, UniProt Q9NWB1 109-208)
T1 sequence: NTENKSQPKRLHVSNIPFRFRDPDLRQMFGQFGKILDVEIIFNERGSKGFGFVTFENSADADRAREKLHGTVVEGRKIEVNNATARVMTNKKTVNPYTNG

B1: GGGCGGA (DNA:RNA)
RNA: GGGAGACCGGAAUUCAGAUUGUCCGGGCGGAUUAAAUCCCGUCGUAGCCACCA
DNA 1: CAATCTGAATTCCGGTCTCCC
DNA 2: TGGTGGCTACGACGGGATT
B2: AUAGACC (DNA:RNA)
RNA: GGGAGACCGGAAUUCAGAUUGUCCAUAGACCUUAAAUCCCGUCGUAGCCACCA
DNA 1: CAATCTGAATTCCGGTCTCCC
DNA 2: TGGTGGCTACGACGGGATT
B3: UCACAUA (DNA:RNA)
RNA: B2 RNA with A25U, U26C, G28C, C30U, C31A
DNA 1: CAATCTGAATTCCGGTCTCCC
DNA 2: TGGTGGCTACGACGGGATT
B4: AGACGCC (DNA:RNA)
RNA: B2 RNA with U26G, G28C, A29G
DNA 1: CAATCTGAATTCCGGTCTCCC
DNA 2: TGGTGGCTACGACGGGATT
B5: UCAUUCC (DNA:RNA)
RNA: B2 RNA with A25U, U26C, G28U, A29U
DNA 1: CAATCTGAATTCCGGTCTCCC
DNA 2: TGGTGGCTACGACGGGATT
B6: CACCUAC (DNA:RNA)
RNA: B2 RNA with A25C, U26A, A27C, G28C, A29U, C30A
DNA 1: CAATCTGAATTCCGGTCTCCC
DNA 2: TGGTGGCTACGACGGGATT
B7: AAACAGU (DNA:RNA)
RNA: B2 RNA with U26A, G28C, C30G, C31U
DNA 1: CAATCTGAATTCCGGTCTCCC
DNA 2: TGGTGGCTACGACGGGATT
B8: AAUCUUU (DNA:RNA)
RNA: B2 RNA with U26A, A27U, G28C, A29U, C30U, C31U
DNA 1: CAATCTGAATTCCGGTCTCCC
DNA 2: TGGTGGCTACGACGGGATT
B9: GUGCUGC (DNA:RNA)
RNA: B1 RNA with G26U, G29U, A31C
DNA 1: CAATCTGAATTCCGGTCTCCC
DNA 2: TGGTGGCTACGACGGGATT
B10: CAUGGGG (DNA:RNA)
RNA: B1 RNA with G25C, G26A, G27U, C28G, A31G
DNA 1: CAATCTGAATTCCGGTCTCCC
DNA 2: TGGTGGCTACGACGGGATT
B11: GCUAGUU (DNA:RNA)
RNA: B1 RNA with G26C, G27U, C28A, G30U, A31U
DNA 1: CAATCTGAATTCCGGTCTCCC
DNA 2: TGGTGGCTACGACGGGATT
B12: CCAGCUA (DNA:RNA)
RNA: B2 RNA with A25C, U26C, A29C, C30U, C31A
DNA 1: CAATCTGAATTCCGGTCTCCC
DNA 2: TGGTGGCTACGACGGGATT
B13: AACACCG (DNA:RNA)
RNA: B2 RNA with U26A, A27C, G28A, A29C, C31G
DNA 1: CAATCTGAATTCCGGTCTCCC
DNA 2: TGGTGGCTACGACGGGATT
B14: GCCUAAG (DNA:RNA)
RNA: B2 RNA with A25G, U26C, A27C, G28U, C30A, C31G
DNA 1: CAATCTGAATTCCGGTCTCCC
DNA 2: TGGTGGCTACGACGGGATT
B15: UUCUCUG (DNA:RNA)
RNA: B2 RNA with A25U, A27C, G28U, A29C, C30U, C31G
DNA 1: CAATCTGAATTCCGGTCTCCC
DNA 2: TGGTGGCTACGACGGGATT
B16: AGCGUUA (DNA:RNA)
RNA: B2 RNA with U26G, A27C, A29U, C30U, C31A
DNA 1: CAATCTGAATTCCGGTCTCCC
DNA 2: TGGTGGCTACGACGGGATT
B17: CGCGGUA (DNA:RNA)
RNA: B1 RNA with G25C, G27C, C28G, G30U
DNA 1: CAATCTGAATTCCGGTCTCCC
DNA 2: TGGTGGCTACGACGGGATT
B18: UAGAGUC (DNA:RNA)
RNA: B1 RNA with G25U, G26A, C28A, G30U, A31C
DNA 1: CAATCTGAATTCCGGTCTCCC
DNA 2: TGGTGGCTACGACGGGATT
B19: UACUCAC (DNA:RNA)
RNA: B2 RNA with A25U, U26A, A27C, G28U, A29C, C30A
DNA 1: CAATCTGAATTCCGGTCTCCC
DNA 2: TGGTGGCTACGACGGGATT
B20: UUGCUGU (DNA:RNA)
RNA: B1 RNA with G25U, G26U, G29U, A31U
DNA 1: CAATCTGAATTCCGGTCTCCC
DNA 2: TGGTGGCTACGACGGGATT

Positions count from the first letter of the chain named. This is one part of the list.

The target in this test is T1, RBFOX1 RRM. The test is described as follows: EMSA; HiTS-Eq, 1 nM pool, 10 min; buffer printed only for the single-RNA assays: 10 mM Tris pH 7.5, 150 mM NaCl, 3.4 mM EDTA, 0.001% NP-40, 30 C. The note with it: tags: His6 N-terminal (pET28a); label: 5' 32P. The gist of the method:
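These values rest on relative association constants, computed from read-count changes of each RNA species versus the control reaction and normalised to the cognate motif. Reads came from free RNA recovered by 8% native PAGE after purified RbFox RRM (wild type or mutant) at increasing concentrations was equilibrated for 10 min in 50 µL with 1 nM of a 5′-radiolabelled pool with 7 randomized nucleotides and DNA-annealed flanks.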
In general terms: In EMSA bound probe runs differently from free probe, usually more slowly.
With B1, the binding signal is 0.0166 KA relative to UGCAUGU.

For B2, the binding signal is 0.000304 KA relative to UGCAUGU.

As for B3, the binding signal is 0.00165 KA relative to UGCAUGU.

Consider B4, for which the binding signal was 0.00902 KA relative to UGCAUGU.

In the case of B5, the binding signal was 0.00283 KA relative to UGCAUGU.

For the molecule B6, the binding signal is 0.00109 KA relative to UGCAUGU.

Take B7: the binding signal was 0.00262 KA relative to UGCAUGU.

Take B8: the binding signal is 0.00665 KA relative to UGCAUGU.

As to B9, the binding signal is 0.0174 KA relative to UGCAUGU.

Take B10: the binding signal was 0.00407 KA relative to UGCAUGU.

In the case of B11, the binding signal was 0.0211 KA relative to UGCAUGU.

B12: the binding signal was 0.00496 KA relative to UGCAUGU.

As to B13, the binding signal was 0.000491 KA relative to UGCAUGU.

As to B14, the binding signal was 0.00685 KA relative to UGCAUGU.

On to B15, for which the binding signal is 0.0167 KA relative to UGCAUGU.

Regarding B16, the binding signal is 0.00452 KA relative to UGCAUGU.

For the molecule B17, the binding signal was 0.0105 KA relative to UGCAUGU.

Consider B18, for which the binding signal is 0.0126 KA relative to UGCAUGU.

B19: the binding signal was 0.00188 KA relative to UGCAUGU.

For the molecule B20, the binding signal was 0.0183 KA relative to UGCAUGU.

These data come from article PMC9911399, “Two distinct binding modes provide the RNA-binding protein RbFox with extraordinary sequence specificity”.
